From PubChem BioAssay AID463173 (ICCB-Longwood Screening Facility, Harvard Medical School, 2010)
Out of some 52,000 compounds screened, about 1,700 (3.3%) were called active. Rule as the data show it: active = survival mostly below about 52% (no sharp cut-off); inactive = mostly above about 56%. This is one part of the list.

test system: Wild type; assay: growth inhibition of S. aureus wild type versus tarO mutant, primary screen, teichoic acid synthesis inhibitors, RN4220, OD600 (AID 463173); conditions: S. aureus RN4220 wild type/DeltatarO growth, OD600, 18 h, stronger effect = lower value, screened at 18.75 µg/mL (by protocol)

Row | Structure (SMILES) | survival
1 | Cc1cccc(C(=O)Nc2ccccc2OCc2cc(=O)n3cc(C)ccc3n2)c1 | inactive: 47%
2 | CC(=O)N1CCCc2cc(S(=O)(=O)N3CCCC(C(=O)Nc4ccc(C)c(F)c4)C3)ccc21 (stereo not given) | inactive: 73%
3 | COc1cc(OC)c2c(C)c(CC(=O)N3CCCCC3)c(=O)oc2c1 | inactive: 84%
4 | Clc1ccc(C2NCCS2)cc1 (stereo not given) | inactive: 107%
5 | COc1ccccc1-c1c(C)nn2c(N3CCN(c4ccc(F)cc4)CC3)cc(C)nc12 | inactive: 88%
6 | CC(C)n1c(=O)c2oc3ccccc3c2n(CC(=O)Nc2ccccc2Cl)c1=O | inactive: 92%
7 | COc1cccc(-n2c(=O)c3c(C)c(C)sc3n(Cc3ccccc3C#N)c2=O)c1 | inactive: 79%
8 | CCOC(=O)c1ccccc1NC(=O)c1c(C)oc2ncnc(N3CCOCC3)c12 | inactive: 85%
9 | COc1ccc(-c2nc3sc(CCNC(=O)C(=O)Nc4ccccc4C#N)c(C)n3n2)cc1 | inactive: 85%
10 | CCOc1ccc(CNC(=O)c2cc3ccccn3n2)cc1 | inactive: 64%
11 | CCc1ccc(CCC(=O)Nc2ccc(C)c(C)c2)o1 | inactive: 142%
12 | COCCCNC(=O)c1ccc(Cn2c(=O)c3ccccc3n(Cc3ccc(Cl)cc3)c2=O)cc1 | inactive: 91%
13 | Cc1cccc(-n2c(SCC(=O)Nc3ccc(C)c(C)c3)nc3n[nH]c(C)c3c2=N)c1 | inactive: 76%
14 | O=C(CN1CCN(Cc2ccccc2F)C1=O)NCc1ccccc1 | inactive: 127%
15 | Cc1ccc(C(=O)N(Cc2ccco2)c2ccccn2)cc1 | inactive: 90%
16 | Cc1ccc(CNC(=O)c2c(Nc3ccccc3C)sc(C(=O)c3ccc(F)cc3)c2N)cc1 | active: -3%
17 | COc1ccc(CC(=O)NCC(c2cccs2)S(=O)(=O)c2ccc(F)cc2)cc1 (stereo not given) | inactive: 102%
18 | COc1cccc(-c2nn(C)c3sc(C(=O)NCc4ccc(OC)cc4OC)cc23)c1 | inactive: 77%
19 | COc1ccc(CCNC(=O)c2ccc(Cn3c(SCc4ccccc4)nc4cccnc43)cc2)cc1 | inactive: 85%
20 | CC(C)c1cc(-c2nc(-c3ccc(Cl)cc3)no2)n[nH]1 | inactive: 67%
21 | CCc1cnc2c(c1SC(C(C)=O)C(=O)N(C)C)c(=O)n(C)c(=O)n2C (stereo not given) | inactive: 78%
22 | O=C(CCn1c(=O)c2ccccc2n(CC(=O)Nc2ccc(F)cc2)c1=O)NCCc1ccccc1 | inactive: 80%
23 | COc1cc(NC(=O)c2nn(C)c3c2COc2ccccc2-3)cc(OC)c1OC | inactive: 93%

Row | Structure (SMILES) | survival
24 | CCOc1ccccc1NC(=O)C1=C(C)Nc2ncnn2C1c1ccco1 (stereo not given) | inactive: 88%
25 | COc1ccccc1C(=O)Nc1ccc(C(=O)OCc2cc(=O)n3c4c(sc3n2)CCCC4)cc1 | inactive: 32%
26 | Cc1ccc(CNC(=O)c2c(Nc3c(C)cccc3C)sc(C(=O)c3ccccc3)c2N)cc1 | inactive: 47%
27 | CCOc1ccc(C2C(C(N)=O)=C(C)Nc3nc(SCc4ccccc4F)nn32)cc1 (stereo not given) | inactive: 87%
28 | Cc1cccc(NC(=O)Cn2c(=O)n(Cc3ccccc3)c(=O)c3oc4ccccc4c32)c1C | inactive: 72%
29 | CC(C)c1ccc(NC(=O)c2ccc(CN3CC(=O)N4CCCCC4C3=O)cc2)cc1 (stereo not given) | inactive: 90%
30 | COc1ccccc1NC(=O)c1cnn(-c2ccccc2)c1-n1cccc1 | inactive: 99%
31 | CC(C)NC(=O)C1CCN(C(=O)C(C(=O)c2ccccc2)n2cc(Cl)ccc2=O)CC1 (stereo not given) | inactive: 109%
32 | CN(C)c1ccc(CNC(=O)c2ccc3nc(Cc4ccccc4)oc3c2)cc1 | inactive: 88%
33 | Cc1cc(C)c(NC(=O)C(=O)NCCc2csc(-c3ccc(F)cc3)n2)c(C)c1 | inactive: 76%
34 | O=C(O)CCn1ccc2cc(S(=O)(=O)N3CCCCCC3)ccc21 | inactive: 77%
35 | CSc1ccc(CCNC(=O)c2csc3c2CCCCC3)cc1 | inactive: 69%
36 | CC(C)CSc1n[nH]c(N)n1 | inactive: 102%
37 | COc1ccccc1Nc1c2c(nc3ccc(NC(=O)c4ccc(N(C)C)cc4)cc13)CCCC2 | inactive: 110%
38 | Cc1ccc(C(=O)c2c(N)c(C(=O)Nc3cccc(C(F)(F)F)c3)c3ccccn23)cc1 | inactive: 132%
39 | Cc1ccc(-n2c(=O)c3oc4ccccc4c3n(Cc3cccc(F)c3)c2=O)cc1C | inactive: 83%
40 | COc1cc(Nc2nc(-c3ccc(OC)c(OC)c3)nc3ccccc23)cc(OC)c1 | active: 0%
41 | Cc1cccn2c(=O)c(C(=O)N3CCN(c4ccccc4)CC3)cnc12 | inactive: 22%
42 | CCCCOc1ccc(C(=O)Nc2cccc(-c3nc4ccccc4o3)c2C)cc1 | inactive: 77%
43 | Cc1nc2nc(NCc3ccc(Br)cc3)[nH]n2c(=O)c1Cc1ccccc1 | inactive: 63%
44 | CCc1ccc(-n2c(=O)c3ccccc3n(Cc3ccccc3C#N)c2=O)cc1 | inactive: 90%
45 | CC(C)c1ccc(NC(=O)c2ccc(=O)n(Cc3ccccc3)c2)cc1 | inactive: 80%
46 | CCCC(=O)Nc1ccc2oc(-c3ccc(O)c(Br)c3)nc2c1 | inactive: 79%

Row | Structure (SMILES) | survival
47 | CCCCC(CC)CNC(=O)CCCCCn1c(=O)[nH]c2ccsc2c1=O (stereo not given) | inactive: 70%
48 | O=C(c1ccc2c(c1)N(Cc1ccc(Cl)cc1)C(=O)c1ccccc1S2(=O)=O)N1CCOCC1 | inactive: 94%
49 | CCOc1ccc2[nH]c(=O)c(-c3nc4cccc(C)n4c3NCc3ccco3)cc2c1 | inactive: 108%
50 | O=C(CSc1nc2c(oc3ccccc32)c(=O)n1-c1ccccc1)Nc1ccc(F)c(Cl)c1 | inactive: 70%
51 | COc1ccc(OC)c(NC(=O)C2=C(C)C(=O)OC23CCN(C(C)C)CC3)c1 | active: 0%
52 | Fc1ccc(N2CCN(c3ncnc4onc(-c5ccc(Cl)cc5)c34)CC2)cc1 | inactive: 81%
53 | O=C(O)Cn1ncc2ccccc2c1=O | inactive: 111%
54 | COc1cccc(C2C(C(N)=O)=C(C)Nc3ncnn32)c1 (stereo not given) | inactive: 89%
55 | CCOC(=O)c1c(NC(C)=O)c2c3c(sc2n1Cc1cc(C)ccc1C)CCCC3 | inactive: 80%
56 | CCOc1ccccc1NC(=O)Cn1c(=O)n(Cc2ccco2)c(=O)c2sc3ccccc3c21 | inactive: 60%
57 | COc1ccccc1N(CC(=O)Nc1ccccc1C(F)(F)F)S(=O)(=O)c1ccc(C)cc1 | inactive: 76%
58 | Cc1ccc(C)c(N2CCN(C(=O)Cn3nc(C)c4sc5ccccc5c4c3=O)CC2)c1 | inactive: 50%
59 | COC(=O)c1ccc(Cc2ccccc2)o1 | inactive: 109%
60 | COc1ccccc1NS(=O)(=O)c1cn(C)c(C)n1 | active: 10%
61 | COc1ccc(N2CC(NC(=O)COc3cccc(C)c3)CC2=O)cc1OC (stereo not given) | inactive: 68%
62 | Cc1oc2ccc(O)c(CN3CCCCCC3)c2c1C(=O)Nc1cccc(C(F)(F)F)c1 | inactive: 30%
63 | O=C1C(c2nc3ccccc3[nH]2)=C(O)c2ccccc21 | inactive: 109%
64 | CCC(O)c1nc2ccccc2n1Cc1cc(C)ccc1C (stereo not given) | inactive: 99%
65 | Cc1ccc(NC(=O)C2CCN(S(=O)(=O)c3ccc4c(c3)CCCC(=O)N4)CC2)cc1N(C)C | inactive: 129%
66 | COc1ccc(OC)c(NC(=O)C2CCN(S(=O)(=O)c3ccc4c(c3)CC(C)N4C(C)=O)CC2)c1 (stereo not given) | inactive: 59%
67 | CCOc1ccc(NC(=O)CSc2nc3ccsc3c(=O)n2CCC(C)C)cc1 | inactive: 72%
68 | CCCCn1c(CCCN2C(=O)c3ccccc3C2=O)nc2ccccc2c1=O | inactive: 104%
69 | COc1ccc(-c2nc(CSCC(=O)NCCC(C)C)c(C)o2)cc1OC | inactive: 80%

Row | Structure (SMILES) | survival
70 | COc1ccc(OC)c(NC(=O)C(C)n2c(=O)c(-c3ccccc3NC(C)=O)nc3ccccc32)c1 (stereo not given) | inactive: 109%
71 | O=C1C2C3c4ccccc4C(c4ccccc43)C2C(=O)N1O (stereo not given) | inactive: 118%
72 | COc1ccc(OC)c(CNC(=O)NCc2noc3ccc(C)cc23)c1 | inactive: 112%
73 | Cc1cc(Nc2cccc(Cl)c2)nc2ccc(NC(=O)COc3ccc(Cl)cc3)cc12 | inactive: 94%
74 | Cc1c(N2C(=O)CSC2=S)c(=O)n(-c2ccccc2)n1C | inactive: 116%
75 | CCOC(=O)C1=C2SCCN2C(=O)C(C#N)C1(C)C (stereo not given) | inactive: 105%
76 | CCOC(=O)c1[nH]c2ccc(C)cc2c1NC(=O)OC | inactive: 116%
77 | CCN1C(=O)c2ccccc2S(=O)(=O)c2ccc(C(=O)NCc3ccccc3OC)cc21 | inactive: 78%
78 | CC(C)c1ccc(NC(=O)c2cc3c(=O)[nH]c4ccccc4c3n2C)cc1 | inactive: 76%
79 | O=C(CSc1cn(CC(=O)N2CCCCC2)c2ccccc12)NCc1ccccc1Cl | inactive: 86%
80 | COc1ccc(C2/C(=C(\O)c3ccc(C)cc3)C(=O)C(=O)N2CCC(=O)O)cc1 (stereo not given) | inactive: 114%
81 | CCC1CN(C(=O)N2CCC(C(=O)NCc3cccc(F)c3)CC2)c2cc(C)ccc2O1 (stereo not given) | inactive: 87%
82 | COC(=O)Cn1c(O)c(N=NC(=O)C2COc3ccccc3O2)c2ccccc21 (stereo not given) | inactive: 102%
83 | Cc1ccc(-n2nc(C)c3c(C(=O)NCCc4ccc(S(N)(=O)=O)cc4)cc(C)nc32)cc1 | inactive: 128%
84 | Cc1nn(-c2ccccc2)c(Cl)c1/C=N/NC(=O)c1cccnc1 | inactive: 103%
85 | O=C(CN1C(=O)c2cccnc2Sc2ccccc21)Nc1cc(F)ccc1F | inactive: 71%
86 | COc1ccccc1CNC(=O)c1cc(S(=O)(=O)N2CCCC(C)C2)cn1C (stereo not given) | inactive: 66%
87 | C1=CCC(CN2CCNCC2)CC1 (stereo not given) | inactive: 98%
88 | CCCCN(C)CCCNC(=O)c1cn(CC)c2ccc(S(=O)(=O)N3CCc4ccccc4C3)cc2c1=O | inactive: 77%
89 | COc1ccc(NC(=O)Nc2cc(C(=O)NCc3ccc(C)cc3)ccc2N2CCCC2)cc1 | inactive: 73%
90 | Cc1ccc(-n2nc(C)c3c(C(F)(F)F)cc(-c4cccnc4)nc32)cc1C | inactive: 81%
